In PMC4336329 (PLoS ONE, 2015):
Out of some 310,000 compounds screened, about 14,000 (4.5%) showed an effect of 50% or more. The effect is printed as a negative number. The list shows a part of the results.

molecular target: human ether-à-go-go-related gene (hERG) potassium channel (human, UniProt Q12809); assay: primary screen, population patch clamp on CHO cells stably expressing hERG
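Note: peak tail current of the secondary pulse compared with the same well before compound.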

Sequence of human ether-à-go-go-related gene (hERG) potassium channel (Q12809 whole entry, looked up): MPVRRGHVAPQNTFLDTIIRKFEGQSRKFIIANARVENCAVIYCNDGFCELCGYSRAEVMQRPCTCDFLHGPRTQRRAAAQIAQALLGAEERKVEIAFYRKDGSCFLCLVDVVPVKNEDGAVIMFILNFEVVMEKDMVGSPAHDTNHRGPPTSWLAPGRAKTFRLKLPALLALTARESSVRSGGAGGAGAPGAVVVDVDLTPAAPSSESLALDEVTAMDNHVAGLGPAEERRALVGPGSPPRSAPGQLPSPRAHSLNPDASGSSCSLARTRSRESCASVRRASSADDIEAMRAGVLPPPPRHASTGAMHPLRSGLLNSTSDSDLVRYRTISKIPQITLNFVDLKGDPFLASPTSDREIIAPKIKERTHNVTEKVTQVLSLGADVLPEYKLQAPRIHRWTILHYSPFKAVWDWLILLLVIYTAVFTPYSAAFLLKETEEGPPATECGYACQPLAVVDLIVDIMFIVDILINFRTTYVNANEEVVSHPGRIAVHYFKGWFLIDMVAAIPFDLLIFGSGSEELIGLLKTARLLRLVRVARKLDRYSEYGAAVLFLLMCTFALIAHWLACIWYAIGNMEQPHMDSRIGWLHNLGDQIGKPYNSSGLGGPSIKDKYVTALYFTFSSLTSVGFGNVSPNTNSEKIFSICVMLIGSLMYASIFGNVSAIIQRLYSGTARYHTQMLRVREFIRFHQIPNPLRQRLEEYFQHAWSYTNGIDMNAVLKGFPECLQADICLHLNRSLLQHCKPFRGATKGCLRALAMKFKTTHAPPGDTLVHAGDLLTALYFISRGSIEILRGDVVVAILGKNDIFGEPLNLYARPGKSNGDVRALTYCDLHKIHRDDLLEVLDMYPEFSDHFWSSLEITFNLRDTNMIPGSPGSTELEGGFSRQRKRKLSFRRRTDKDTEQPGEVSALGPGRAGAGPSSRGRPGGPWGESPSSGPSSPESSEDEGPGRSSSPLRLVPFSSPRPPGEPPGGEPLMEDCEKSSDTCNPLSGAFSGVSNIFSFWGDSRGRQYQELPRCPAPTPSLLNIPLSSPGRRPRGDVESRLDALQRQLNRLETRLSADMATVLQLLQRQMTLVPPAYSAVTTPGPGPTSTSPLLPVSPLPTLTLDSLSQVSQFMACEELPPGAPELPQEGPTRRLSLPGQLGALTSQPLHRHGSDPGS

Row | Structure (SMILES) | hERG current change (%, negative = inhibition) at 10uM
1 | CC1CC(C)CN(C(=O)CN(C)S(=O)(=O)c2ccc3c(c2)c(=O)n(C)c(=O)n3C)C1 (centres unmarked) | 4.09%
2 | Cc1ccc([N+](=O)[O-])cc1NC(=S)NC(=O)c1cccnc1 | -33.2%
3 | CCNC(=O)c1cc(S(=O)(=O)N(C)C)c(Cl)cc1Cl | -1.9%
4 | Cc1c(C(=O)OC(C)CCN(C)C)oc2ccccc12.Cl (centres unmarked) | -42.8%
5 | O=C(CSc1nc2ccccc2o1)NCc1ccc2c(c1)OCO2 | -5.06%
6 | CC1(C)NC(=O)N(CC(=O)Nc2cc(C(F)(F)F)cc(C(F)(F)F)c2)C1=O | 3.44%
7 | CC(=O)Oc1c(C)cc(O)c2ccccc12 | -13%
8 | COc1ccc(N2CCN(c3oc(Cc4ccccc4)nc3C#N)CC2)cc1 | -27.8%
9 | COc1ccc(Cc2nc3ccc(C(=O)NCCc4ccncc4)cc3o2)cc1OC | 7.31%
10 | CCOc1ccc(NC(=O)CC2C(=O)N(c3ccc(OCC)cc3)C(=S)N2C2CC2)cc1 (centres unmarked) | 15.2%
11 | COc1ccc(OC)c(CCNC(=O)CN2C(=O)CCSc3ccccc32)c1 | -0.0631%
12 | Cl.N=c1n(CCCOc2ccccc2Cl)c2ccccc2n1CC(N)=O | 3.98%
13 | O=c1[nH]c2cc(NCCO)c([N+](=O)[O-])cc2[nH]1 | 17.8%
14 | CCc1cc2ccc(C)cc2nc1SCC(=O)NC1CCCC1 | 13%
15 | CCOC(=O)C1CCN(C(=O)COc2ccc(Br)cc2C)CC1 | -19.3%
16 | CC(C)c1ccc(NC(=O)CNC(=O)Cn2cnc3ccccc3c2=O)cc1 | 3.21%
17 | O=C(CCCc1ccccc1)NCCCc1ccccc1 | -10.9%
18 | CCC1(C)Cc2ccccc2-c2nc3n(c(=O)c21)CCCCC3 (centres unmarked) | -24%
19 | Cc1ccc2cccc(N)c2n1 | 0.482%
20 | Cn1cccc1C(=O)NNC(=O)COc1ccc(Br)cc1 | 11.8%
21 | CCc1cccc(NC(=O)C2CCN(S(=O)(=O)c3c(C)noc3C)CC2)c1 | -5.55%
22 | CC(=O)Nc1ccc(S(=O)(=O)NC2=NCN(CCOC(=O)c3ccccc3)CN2)cc1 | 6.73%
23 | COc1cc(/C=N/NC(=O)c2ccc([N+](=O)[O-])cc2Cl)cc(Br)c1O | 2.77%

Row | Structure (SMILES) | hERG current change (%, negative = inhibition) at 10uM
24 | CCOc1ccc(C(C)NC(=O)c2cccnc2OCC)cc1OCC (centres unmarked) | -2.29%
25 | COc1ccc(C(CNC(=O)c2cccc(S(=O)(=O)Nc3ccccc3OC)c2)N2CCOCC2)cc1 (centres unmarked) | -46.1%
26 | O=C(CCCc1cccs1)Nc1nccs1 | 38.7%
27 | O=C(Cc1ccccc1[N+](=O)[O-])N1CCN(S(=O)(=O)c2ccccc2)CC1 | -9.19%
28 | COc1cccc(-n2c(SCC(=O)NCCC3=CCCCC3)nc3n[nH]c(C)c3c2=N)c1 | -58.9%
29 | C/C(=N\N1CCCCC1)c1c(O)[nH]c(=O)[nH]c1=O | -11%
30 | C[C@H](NC(=O)N1CCn2c1nc1ccccc12)C(=O)N1CCCCC1 | 9.31%
31 | COc1cccc(C(=O)C2CCCN(C(=O)c3ccccn3)C2)c1 (centres unmarked) | 3.77%
32 | Cn1c(SCc2ccc3c(c2)OCO3)nnc1-c1ccccc1 | -8.13%
33 | COc1ccccc1NC(=O)C1CCCN(S(=O)(=O)c2ccccc2)C1 (centres unmarked) | 1.7%
34 | Cc1ccc(NC(=O)COC(=O)c2csc3c2CCC(C)C3)cc1S(=O)(=O)N1CCCCC1 (centres unmarked) | 8.98%
35 | CN(CCO)C1=CC(=O)CC(C)(C)C1 | 13.8%
36 | CCCn1c(N)c(N2CCCCC2)c(=O)n(CC(=O)Nc2ccccc2)c1=O | 3.95%
37 | CC12CCC(C/C1=N/O)C2(C)C (centres unmarked) | 6.85%
38 | COC(=O)c1cnn(-c2cc(Oc3ccccc3)ncn2)c1N | -10.4%
39 | CC(C)(C)n1cnc2cc(NCc3ccc(Br)cc3)ccc21 | -69.2%
40 | O=C(NNc1ccccc1C(F)(F)F)c1cccs1 | -1.2%
41 | CS(=O)(=O)N(CC(=O)Nc1ccc(F)cc1)C1CCCCC1 | 12.6%
42 | Cc1ccc(S(=O)(=O)NCC(=O)OCN2C(=O)c3ccccc3C2=O)cc1 | 5.91%
43 | Cc1ccc(OCc2nnc(SCC(=O)N3CCc4ccccc43)n2C)cc1 | 16.4%
44 | COc1ccc(CCC(=O)OCC(=O)Nc2ccc(C)c(S(=O)(=O)N(C)C)c2)cc1 | -18.8%
45 | C=C(C)CNC(=S)Nc1cccc2cnccc12 | 15.7%
46 | Cc1nc(C)c(C(=O)NNC(=O)Nc2ccc(Cl)cc2)s1 | 17.1%

Row | Structure (SMILES) | hERG current change (%, negative = inhibition) at 10uM
47 | CCNC(=S)N/N=C(\C)c1ccco1 | 24.5%
48 | O=C(Nc1ccc(O)cc1)c1cc(S(=O)(=O)N2CCCC2)ccc1Cl | -14.9%
49 | CCCN(CCC)CCCNC(=O)c1cc2c(-c3ccc(OC)c(OC)c3)nn(C)c2s1 | -6.94%
50 | C=CCSc1ncccc1C(=O)O | 11.7%
51 | CC(C)(C)C(=O)Nc1cccc2[nH]ncc12 | 2.87%
52 | O=C(c1c[nH]c(C(=O)C(Cl)(Cl)Cl)c1)c1ccccc1Br | 7.57%
53 | Cc1cc(NC(=O)c2cc(-c3ccc(C)c(C)c3)nc3ccccc23)no1 | -1.48%
54 | CSc1nc(Cl)cc(=O)[nH]1 | 9.66%
55 | Cc1ccc(S(=O)(=O)Cn2nnnc2C(CC(C)C)N2CCN(C3CCCC3)CC2)cc1.Cl (centres unmarked) | -33.7%
56 | CCC(=O)NC(Nc1sc2c(c1C(=O)OC)CCCC2)(C(F)(F)F)C(F)(F)F | 6.74%
57 | COc1ccc(NC(=O)CN2C(=O)COc3ccccc32)cc1OC | 17.8%
58 | CCOC(=O)C1=C(C)N(CC(C)C)C(=O)C1 | 11.4%
59 | CCCc1c(O)nc(SCCN(CC)CC)n(C(=O)c2ccccc2)c1=O.Cl | -58%
60 | O=C(O)/C=C/c1cnc2ccccc2c1 | 19.1%
61 | CCCOc1ccc(C(=O)Nc2c[nH]c(=O)[nH]c2=O)cc1 | -6.41%
62 | COc1ccc(-c2noc(C3CCCN(C(=O)Nc4ccccc4)C3)n2)cc1 (centres unmarked) | -36.4%
63 | CN(c1ccccc1C(=O)Nc1cccnc1)S(C)(=O)=O | 0.564%
64 | Cc1ccccc1NC(=O)c1ccc(COc2ccc3c(C)cc(=O)oc3c2)cc1 | 17.7%
65 | CCOC(=O)c1ccc(-c2ccc3[nH]c4ccccc4c(=O)c3c2)cc1F | 13%
66 | CC(=O)Oc1c(Sc2ccccc2[N+](=O)[O-])c(C)nn1C(C)(C)C | 0.394%
67 | Cc1ccc(SCC(=O)NCc2ccc(F)cc2)cc1 | -1.72%
68 | Cc1cccc(NC2=NCC(=O)N2Cc2ccccc2)c1 | 11.9%
69 | Fc1ccccc1CSc1ncnc2c1oc1ccccc12 | 17.9%

Row | Structure (SMILES) | hERG current change (%, negative = inhibition) at 10uM
70 | O=C(O)C1C(C(=O)O)C1(c1ccccc1)c1ccccc1 (centres unmarked) | 20.4%
71 | COc1ccc(F)c(C2C(C#N)=C(N)Oc3n[nH]c(C(C)(C)C)c32)c1 (centres unmarked) | 2.53%
72 | COc1ccc(N2CCN(CCC(=O)c3ccc4ccccc4c3)CC2)cc1 | -11.2%
73 | COc1ccc(CCNC(C)CCc2ccc(OC)cc2)cc1 (centres unmarked) | -13%
74 | COc1ccc(OC)c(NC(=O)CSc2nc3n[nH]c(C)c3c(=N)n2-c2cccc(Cl)c2C)c1 | -12.7%
75 | NNC(=O)/C=C/c1ccc(Cl)cc1Cl | 10.3%
76 | O=C(Nc1cc(S(=O)(=O)N2CCCCC2)ccc1Cl)C1=NN(c2ccccc2)C(=O)CC1 | 12.6%
77 | O=C(/C=C/c1ccc(-c2cccc([N+](=O)[O-])c2)o1)N1CCOCC1 | -1.16%
78 | CCN1c2ccc(S(=O)(=O)N3CCOCC3)cc2N(Cc2ccc(OC)cc2)C1C (centres unmarked) | 16.5%
79 | COc1cccc(/C=N/NC(=O)NC23CC4CC(CC(C4)C2)C3)c1O | -7.74%
80 | Cc1ccc(Cl)cc1N1CCN(C(=O)c2cn(C)c(=O)c3c2c2ccccc2n3C)CC1 | 3.75%
81 | O=C(Cn1c2ccccc2c(=O)c2ccccc21)N/N=C/c1cc([N+](=O)[O-])ccc1N1CCCCCC1 | 8.8%
82 | Cc1c(C(=O)NCc2cccs2)oc2ccccc12 | -18%
83 | C#CCOCCOCCOCCNc1nc(N2CCN(C(=O)[C@H](CCCCN)n3cc([C@@H](N)CC(C)C)nn3)CC2)nc(N2CCN(C(=O)[C@H](CCCCN)n3cc([C@@H](N)CC(C)C)nn3)CC2)n1.Cl | 4.98%
84 | CC1CCC(NC(=O)c2cccc(S(=O)(=O)N3CCN(c4ccc(F)cc4)CC3)c2)CC1 (centres unmarked) | -16.9%
85 | COc1ccc(/C=N\NC(=O)C2COc3ccccc3O2)cc1O (centres unmarked) | -15.4%
86 | Cc1ccc(S(=O)(=O)Cc2ccc(C(=O)N3CCCCCC3)o2)cc1 | -15.4%
87 | Cc1cccc(N=Nc2c(C)c(C#N)c(O)[nH]c2=O)c1 | 14.6%
88 | CC(C)n1c(SCC(N)=O)nc2c1c(=O)n(C)c(=O)n2C | 2.93%
89 | CN(c1cccc(NC(=O)c2ccc(Cl)c(S(=O)(=O)Nc3ccccc3)c2)c1)S(C)(=O)=O | -9.49%
